The results in this text go back to the supplement of paper PMC10681739.

± gives the standard deviation of the averaged measurements. In all, about 4,100 sequences were measured (“arbitrary fluorescence units”: median about 780, highest 2% from about 22,000 on). Some of the results follow.

The assay concerns the target T1, ETS1 (UniProt P14921).
T1 sequence: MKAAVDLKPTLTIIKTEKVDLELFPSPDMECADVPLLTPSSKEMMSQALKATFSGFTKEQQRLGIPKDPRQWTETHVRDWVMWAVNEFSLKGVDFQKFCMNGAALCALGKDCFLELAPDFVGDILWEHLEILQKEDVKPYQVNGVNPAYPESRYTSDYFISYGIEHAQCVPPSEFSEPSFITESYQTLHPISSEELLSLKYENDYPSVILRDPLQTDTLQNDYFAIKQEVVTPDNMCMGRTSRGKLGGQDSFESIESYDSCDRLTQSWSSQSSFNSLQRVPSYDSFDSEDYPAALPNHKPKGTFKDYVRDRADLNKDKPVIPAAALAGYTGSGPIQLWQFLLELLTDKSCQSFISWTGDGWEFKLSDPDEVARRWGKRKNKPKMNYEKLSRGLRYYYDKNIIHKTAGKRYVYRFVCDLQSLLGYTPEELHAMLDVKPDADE
Put plainly: ETS1 binding intensity (PBM fluorescence), ETS1 alone (arbitrary fluorescence units); higher = stronger binding. To be noted: ETS1 concentration 1 nM; RUNX1 concentration 0 nM. The procedure, abridged: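 Recombinant full-length human ETS1 was applied at 1 nM, without RUNX1, to double-stranded Agilent 4 × 180k arrays of 36-bp genomic probes carrying a mutated RUNX1 partner site, following standard PBM protocols. Detection used an anti-ETS1 antibody (Cell Signaling Technology 14069) and an Alexa488-conjugated secondary antibody, with scanning on a GenePix 4400A. Each sequence was printed as four replicate spots. Binding level is the spot fluorescence intensity, summarised across replicates and not normalised.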
The sequence GGCTCCCTCGCGAACACCACGACTTCCCTCTTCCCT showed an ETS1 binding intensity of 431.

With ACCCTCTGTGATTTAGGCTAGCGGGCTTTCCGCCTA, the ETS1 binding intensity came out at 438.

As to GGGTGGGGCTCTGGGGCCGGGAAGTTGCAGAGGGCT, the ETS1 binding intensity worked out at 573.

For GCGATTGGGGTTCCCGCCGTATTTCCCGTTCCCCAT, the ETS1 binding intensity was determined as 795.

TTCTTTCTTTGACAACAGATCACTTCCTCAGAAGCA gave an ETS1 binding intensity of 752.

GGCCGAGGACTGCAGAGCCCCGGAAGCCTAGCCCCA: the ETS1 binding intensity amounted to 449.

On to GGGCTTCGGCGCTGGAATTGGACCAATCCGGAATCG, for which the ETS1 binding intensity was determined as 394.

On to CTGACGCATTTCCGGCCTTTGGGGTTGATCGGTCAT, for which the ETS1 binding intensity came out at 26200.

Sequence AGTTACAGAACCTCACTGGGGCCACATCCTCTCCAG displayed an ETS1 binding intensity of 482.

Turning to CGCCGTAGGAGGAAGCCGCGGCCGAAACGCTCCTGG, the ETS1 binding intensity worked out at 371.

In turn, AACACTACACATCCTCTCTTGTTGTAGCTGCTGAAC registered an ETS1 binding intensity of 3140.

Sequence CGGTGAGCTGGGGTTTAACTTCCTTATAGCAGGTTG yielded an ETS1 binding intensity of 551.

CAGCCAGCGCACCTCCTCCTCAGCTTCCTCTGGTGC: the ETS1 binding intensity was determined as 620.

In turn, TTAAGGAGCTTCCGGGGCCGCGCGTAGAGGCGGGTG gave an ETS1 binding intensity of 5170.

GCAGAAAGGCGCTGTCCCTCTGCGGAAGGCGCCGCT yielded an ETS1 binding intensity of 310.

On to GCCTTTGGAAACTACAGCTTCCACTTCCGCTGAGGG, for which the ETS1 binding intensity was 4170.

In turn, GGGTCCTTCCGGGTTTTGTGTCGAATCTACGGCGGC came in with an ETS1 binding intensity of 7400.

CCACTTATCGCGAGAACGCGGAGTCCTGCGGATGGC had an ETS1 binding intensity of 403.

GCCCGGGCCGCCGCGAGGCTGTCTGGGAAATGTAGT returned an ETS1 binding intensity of 365.

CTCCTGTTCCGGCTCAAAGGGAATCCGCTGCTTTTC displayed an ETS1 binding intensity of 1530.

GTATCATTTCCCAGCTAAGAGCCCCAGAGACTCTAA gave an ETS1 binding intensity of 478.

In the case of GGGGATGAGGGTCGGGAGGTAGTTCCGGGTGCGCGG, the ETS1 binding intensity was 692.

In turn, TTCAAATACCAGAGCCCAATATTGGTATTTCCGAGC displayed an ETS1 binding intensity of 385.

Regarding CTGGAGCCGTCCGGGTCTGGCCCCTTCGGCCGCGCA, the ETS1 binding intensity amounted to 289.

As for GCAGAGAGGAAGTGTGGGGGTGGAGGAGGCCGAAGA, the ETS1 binding intensity is 1840.

GTTGTCTTCTTCCTGAGTAAATCGCAGTGCAGAGAA yielded an ETS1 binding intensity of 2080.

ATATCCCTGTAGGTGAAAAACATGCCGGAAGTGAAA: the ETS1 binding intensity came out at 3030.

On to CTCCTCAGCACACTGCTGCTGCCAGGAAGTGGGGGA, for which the ETS1 binding intensity turned out to be 676.

Turning to TGCGAACCTTGTGACTTTGTCTGTTTCCTGTTTCAG, the ETS1 binding intensity is 1650.

On to TGACGGCCAGGAAGCCTGAAGGCGCAGGGGCCGCCG, for which the ETS1 binding intensity amounted to 478.

As for CCAGAACAAATCACACCCCACTTCCTGTTGCATGCA, the ETS1 binding intensity was determined as 9050.

The sequence ACTAGAAGCGGAAGTAGTTGTAGGCGCCTTTGCAAC yielded an ETS1 binding intensity of 8620.

Consider GCTCTTCACTTCCTGTGGCTCCCTCAGCGGCCGCCG, for which the ETS1 binding intensity was 12400.

In turn, CTCAGCTTGGGGCTCCGGTGTTTCCGTTTTGGGGTT had an ETS1 binding intensity of 868 ± 41.

In the case of GGCACAGGCCGAAGGGCTGAGCCGGAAGCTCCTGCC, the ETS1 binding intensity came to 676.

In turn, CCGGTCGCTGAGTGATTGAGGCCGGAAGACAACGCT came in with an ETS1 binding intensity of 16300.

Consider GGGCAGGTGCTTCCTTCTCTCAGAAAGCACTCCTCC, for which the ETS1 binding intensity stood at 1120.

On to GCTAAGCACCGACCTCGAAGCAGAGGAAGTGCAGTC, for which the ETS1 binding intensity stood at 484.

In the case of CGGCCTAGGCTTCCTGGCGTTCCTGCAGGCCTCGGA, the ETS1 binding intensity came to 1340.

In turn, CTTTCTGGTTTCCTTCCTTTTTGGTCTTGGTTTCAT registered an ETS1 binding intensity of 2030.

On to TTGCTGTAGTTTAGTCTCTGCAGCTTCCTGTTGGCT, for which the ETS1 binding intensity turned out to be 1160.

Regarding CCAAGTGTAAAACGGAAGCTCAACCCCGAATCTTAC, the ETS1 binding intensity is 2490.

For the sequence ACGCGCGCGGGGGAGGTGGCTTCTTCCGGCCGGGCC, the ETS1 binding intensity worked out at 1860.

In turn, TGAACTCACATAATCCGCCAAGGGGTTCCGGTGCGA came in with an ETS1 binding intensity of 588.

The sequence GAAGGGGAAGTCCAGGAGCATGGGTGCTTTTTTTCC displayed an ETS1 binding intensity of 397.

In the case of CCTCCTTCGGCCACGACACGATCACTTCCGGTTGGT, the ETS1 binding intensity amounted to 13500.

CGTTGCCACCCTCTTAAAGGAGCCCAGGAAGGAGGC returned an ETS1 binding intensity of 382.

The sequence TATCAGGCAGGCTTCCTTCAAGACCGTTGTTTTTGC showed an ETS1 binding intensity of 464.

Take AGGTTGGGGGAAAGCACTAAGAGGAAGCAGGGTTAG: the ETS1 binding intensity came out at 619.

Turning to GTTGCAGGAAACGATGGGTTTTTTGGTATGAACTGC, the ETS1 binding intensity was determined as 1830.

With CTGCCGCTTCCTGGGCTGAGTCCGCCCGCTGTCCCG, the ETS1 binding intensity was determined as 3330.

TGCGCCAGCGGGAGGGAGCAGTTCCGGGTACGGTGC: the ETS1 binding intensity is 563.

The sequence ACTCTGAGGTGTGGCCCTGAGCAAGTTCCTTCCTGT had an ETS1 binding intensity of 485.

With GCACACAGTGCGTTTGGCTTCCAGCTTCCTGTTGGC, the ETS1 binding intensity is 936.

On to TGACCTTTGGGGTTTGGTCAGGAAGTGGGGTACTGG, for which the ETS1 binding intensity was 549.

GCAAGATCGCGCATTAACATCTCGGAAATGGACAGC gave an ETS1 binding intensity of 469.

Sequence CCCTGCCATTTCCTGCCCAATCCCGCGTATGCAACT gave an ETS1 binding intensity of 17000.

As to TCTTCGGGAGAGGCTGCAGCGGAGGCGGAAGCAGGA, the ETS1 binding intensity came to 537.

On to CTCCCAGCCGGGCGGAACCGAGACCGATTCGTCCCC, for which the ETS1 binding intensity came to 372.

GCTTCGTTTCCCGCCGGGGCTCGCCGCGCCCCCCTA displayed an ETS1 binding intensity of 1160.

TGTTAGGATGTAAGACCGAAAGAGACACACCCTCAA came in with an ETS1 binding intensity of 393.

Turning to CTCAATTCAGACCAGCAACACGGCCGGAAGCAACTC, the ETS1 binding intensity amounted to 1920.

Sequence CTCGTCAACGACACGTCACCCCGCCTACTTCCCGAC had an ETS1 binding intensity of 383.
